In PubChem BioAssay AID588795 (National Center for Advancing Translational Sciences (NCATS), 2011):
Among all 390,000 compounds or so, about 1,400 (0.36%) were called active. The shares of active, inactive and inconclusive entries below differ from those in the screen. Calls come from the whole dose curve; as a rule, active = well fitted inhibition curve with a large enough effect; inconclusive = small, poorly fitted or top-dose-only effect; inactive = no such curve, though single readings can be large or run the other way. Potencies beside an inconclusive call are fits to weak or partial responses and may not hold up.

Each compound was assayed against Flap endonuclease 1 (Homo sapiens) (UniProt P39748) (assay: qHTS Assay for the Inhibitors of Human Flap endonuclease 1 (FEN1).). Settings: Recombinant FEN1 flap cleavage, fluorescence, 15 min; series mostly up to 114 µM.
Method in brief: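 Reaction started by adding substrate (50 nM final) to 10 nM enzyme after 15 min room-temperature compound preincubation. Reads at 0 and 15 min, with data normalized and fitted to a four-parameter Hill equation.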
Note: nearly all actives have a fitted effect of over 65% in size.
Potency is the fitted concentration of half-maximal effect; tags give direction and shape of the fitted curve.

Sequence of UniProt P39748 (P39748 whole entry, looked up): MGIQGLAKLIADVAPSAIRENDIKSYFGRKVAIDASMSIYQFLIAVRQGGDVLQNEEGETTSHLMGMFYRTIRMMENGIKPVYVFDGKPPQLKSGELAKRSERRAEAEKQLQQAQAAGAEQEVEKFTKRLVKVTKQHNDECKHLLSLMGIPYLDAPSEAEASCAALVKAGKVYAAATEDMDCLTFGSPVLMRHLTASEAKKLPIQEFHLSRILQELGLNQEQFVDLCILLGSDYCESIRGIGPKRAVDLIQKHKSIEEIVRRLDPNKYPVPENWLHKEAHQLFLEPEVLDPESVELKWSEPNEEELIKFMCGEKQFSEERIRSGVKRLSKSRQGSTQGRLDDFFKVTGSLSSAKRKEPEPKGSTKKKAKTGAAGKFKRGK

SMILES | Potency
CN(C)c1ccc(C(=O)Nc2c(C(=O)NC(C)(C)C)oc3ccccc23)cc1 | inconclusive: 39.8 µM [inhibitor, partial curve, poor fit]
CS(=O)(=O)C1=NSC2=NC(=O)/C(=C\c3cccn3-c3ccccc3Cl)C(=N)N21 | inconclusive: 79.4 µM [inhibitor, single point]
CN(C)c1ccc(/C=C/c2sc3ccccc3[n+]2CCCCI)cc1 | inconclusive: 56.2 µM [inhibitor, partial curve, poor fit]
O=C1CN(C(=O)COC(=O)c2ccc([N+](=O)[O-])s2)c2ccccc2N1 | inconclusive: 11.2 µM [inhibitor, partial curve, poor fit]
Cc1cc(NCCN(C)C)n2nc(-c3cccs3)cc2n1 | inconclusive: 89.1 µM [inhibitor, partial curve, poor fit]
c1cncc(C2Nc3ccccc3-c3nc4ccccc4n32)c1 (configuration not stated) | inconclusive: 89.1 µM [inhibitor, partial curve, poor fit]
NC(=O)C1CCN(C2=C(Cl)C(=O)c3ccccc3C2=O)CC1 | inconclusive: 79.4 µM [inhibitor, single point]
CN1CCN(S(=O)(=O)Cc2ccc(Cl)cc2)CC1 | inconclusive: 89.1 µM [inhibitor, partial curve, poor fit]
CCOC(=O)CCCSc1nnc(CCCCCN2C(=O)c3cccc4cccc(c34)C2=O)o1 | inconclusive: 70.8 µM [inhibitor, partial curve, poor fit]
O=c1ccc2c(-c3ccccc3S(=O)(=O)O)c3ccc(O)c(O)c3oc-2c1O | inconclusive: 0.631 µM [inhibitor, full curve, poor fit]
O=C(CN1CCN(Cc2ccc(F)cc2)CC1)NCc1ccccc1 | inconclusive: 39.8 µM [inhibitor, single point]
CCCCNC(=O)Cn1nc(-c2ccc(C)cc2)ccc1=O | inactive
Cc1ccc(NC(=O)CNCc2ccccc2Cl)cc1S(=O)(=O)N(C)C | inconclusive: 25.1 µM [inhibitor, single point]
O=C(O)/C=C/c1ccc2ccccc2c1 | inconclusive: 89.1 µM [inhibitor, partial curve]
COc1cc(-c2nc3ccc(N4CCN(C)CC4)cc3[nH]2)cc(OC)c1OC | inconclusive: 50.1 µM [inhibitor, partial curve]
CN(C)S(=O)(=O)c1cc(NC(=O)COC(=O)/C=C/c2ccco2)ccc1Cl | inconclusive: 25.1 µM [inhibitor, full curve]
CC(=O)c1cccc(NC(=O)Nc2ccc3c(c2)N(C)C(=O)CS3)c1 | inconclusive: 89.1 µM [inhibitor, partial curve, poor fit]
Cc1ccc(-c2nc(CCN3C(=O)c4ccccc4C3=O)cs2)cc1 | inconclusive: 79.4 µM [inhibitor, partial curve, poor fit]
O=[N+]([O-])c1ccc(/C=C/c2ccnc3ccccc23)cc1 | inconclusive: 31.6 µM [inhibitor, full curve]

SMILES | Potency
O=C(Nc1ccc(S(=O)(=O)Nc2ncccn2)cc1)c1ccc2ncsc2c1 | inconclusive: 89.1 µM [inhibitor, single point]
Cc1cc2nc(/C(C#N)=C\c3ccc(-c4ccccc4C(=O)O)o3)[nH]c2cc1C | inconclusive: 79.4 µM [inhibitor, partial curve, poor fit]
O=C(NCc1ccccc1)c1ccc(CSc2nc3cccnc3n2Cc2cccc(F)c2)cc1 | inactive
CCc1ccc(NC(=S)Nc2cccc3cnccc23)cc1 | inconclusive: 70.8 µM [inhibitor, partial curve, poor fit]
N=C1S/C(=C\c2ccc(-c3cccc(Cl)c3)o2)C(=O)N1c1nccs1 | inconclusive: 44.7 µM [inhibitor, partial curve]
Cn1c(=O)c(=O)n(C)c2cc(S(=O)(=O)CCC(=O)Nc3ccc(F)cc3)ccc21 | inactive
COc1ccc([C@H]2CC(=O)C=C(c3cc(C(F)(F)F)cc(C(F)(F)F)c3)C2)cc1 | inconclusive: 50.1 µM [inhibitor, partial curve, poor fit]
NC(=O)COc1ccc2oc(=O)cc(-c3cc4ccccc4o3)c2c1 | inconclusive: 25.1 µM [inhibitor, partial curve, poor fit]
C=CCN(Cc1ccc(OC)c(OC)c1)C(=O)c1cc2cc(F)ccc2[nH]1 | inconclusive: 44.7 µM [inhibitor, partial curve, poor fit]
O=C(N/N=C/c1cc(Br)c(O)c(Br)c1O)c1ccc2c(c1)OCCO2 | inactive
COc1cc(/C=N/n2nnnc2Nc2ccccc2)cc(OC)c1OC | inconclusive: 11.2 µM [inhibitor, partial curve, poor fit]
Cc1nn2c(NCc3ccccn3)cc(C(C)C)nc2c1-c1ccccc1 | inconclusive: 44.7 µM [inhibitor, partial curve, poor fit]
CCOCCSc1nc2c(c(=O)[nH]c(=O)n2C)n1CCCc1ccccc1 | inactive
COc1ccc(-c2cc(=Nc3c(C)n(C)n(-c4ccccc4)c3=O)c3ccccc3o2)cc1 | inconclusive: 50.1 µM [inhibitor, partial curve, poor fit]
CCCc1ccc(C(=O)NC(=O)c2ccccc2O)cc1 | inactive
O=C(O)c1cn(C2CC2)c2cc(N3CCN(S(=O)(=O)c4ccc5c(c4)OCCO5)CC3)c(F)cc2c1=O | inconclusive: 79.4 µM [inhibitor, partial curve]
CO[C@H]1C[C@@H]2CC[C@@H](C)[C@@](O)(O2)C(=O)C(=O)N2CCCC[C@H]2C(=O)O[C@H]([C@H](C)C[C@@H]2CC[C@@H](O)[C@H](OC)C2)CC(=O)[C@H](C)/C=C(/C)[C@@H](O)[C@@H](OC)C(=O)[C@H](C)C[C@H](C)C=C/C=C\C=C/1C | inconclusive: 28.2 µM [inhibitor, partial curve, poor fit]
C=C1NN(CC2CC2)C(=O)N1c1ccc(OCc2ccccc2)cc1 | inactive
